Measurements reported in PubChem BioAssay AID1460 (National Center for Advancing Translational Sciences (NCATS), 2008).
Out of some 270,000 compounds screened, about 5,800 (2.1%) were called active. The shares of active, inactive and inconclusive entries below differ from those in the screen. The call rests on the fitted dose curve; in most records, active means well fitted inhibition curve with a large enough effect; inconclusive means small, poorly fitted or top-dose-only effect; inactive means flat fitted curve, though single readings scatter. A potency beside an inconclusive call is a rough fit, not a confirmed value.

The compounds below were run against Microtubule-associated protein tau (Homo sapiens) (UniProt P10636) (assay: qHTS for Inhibitors of Tau Fibril Formation, Thioflavin T Binding). Conditions: recombinant tau K18 P301L (four-repeat tau fragment), heparin-induced fibrillization, ThT fluorescence; series mostly up to 57.4 µM; activity, negative = inhibition: at the top concentration.
Outline: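 Heparin-induced (20 uM) aggregation of recombinant human K18 P301L tau, 15 uM unlabeled with 0.24 uM labeled, pH 7 acetate buffer, 6 hr at 37 C with compound. Fibrils quantified by 30 uM ThT fluorescence after 1 hr ambient incubation.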
Further: nearly all actives have a fitted effect of over 55% in size.
On the % scale 0 is the no-effect control and ±100 the full control effect; potency means the concentration at half of the fitted maximal effect; tags describe the fitted curve by direction and shape.

Sequence of UniProt P10636 (P10636 whole entry, looked up, the tested form may be a part): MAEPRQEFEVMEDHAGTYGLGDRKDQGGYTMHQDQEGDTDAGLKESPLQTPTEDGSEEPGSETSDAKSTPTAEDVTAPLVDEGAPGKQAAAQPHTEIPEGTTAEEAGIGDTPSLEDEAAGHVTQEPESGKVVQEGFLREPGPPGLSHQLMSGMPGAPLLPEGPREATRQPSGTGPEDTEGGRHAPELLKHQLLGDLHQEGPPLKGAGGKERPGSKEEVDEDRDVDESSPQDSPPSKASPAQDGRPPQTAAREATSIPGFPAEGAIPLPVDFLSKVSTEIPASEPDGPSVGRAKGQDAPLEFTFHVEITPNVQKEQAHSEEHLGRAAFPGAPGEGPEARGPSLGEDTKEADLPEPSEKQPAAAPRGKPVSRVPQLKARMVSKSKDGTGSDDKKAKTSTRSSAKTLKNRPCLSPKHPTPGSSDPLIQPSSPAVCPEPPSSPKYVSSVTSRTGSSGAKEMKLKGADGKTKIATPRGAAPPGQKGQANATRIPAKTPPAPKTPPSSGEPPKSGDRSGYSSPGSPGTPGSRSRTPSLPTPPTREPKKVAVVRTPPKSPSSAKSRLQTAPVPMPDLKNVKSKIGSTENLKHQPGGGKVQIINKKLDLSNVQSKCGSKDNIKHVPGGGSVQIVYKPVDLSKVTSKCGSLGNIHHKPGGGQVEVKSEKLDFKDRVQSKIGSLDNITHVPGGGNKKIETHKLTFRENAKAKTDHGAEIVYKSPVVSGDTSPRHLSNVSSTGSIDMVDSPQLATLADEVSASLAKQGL

Row | Structure (SMILES) | Potency | activity, negative = inhibition
1 | CN1CCc2c(sc(/N=C/c3c[nH]c4ccccc34)c2C#N)C1 | active: 14.1 µM | 
2 | O=[N+]([O-])c1ccc(COc2cccnc2)cc1 | inconclusive: 28.2 µM [inhibitor, partial curve] | 
3 | Cc1cccc(CN2CCc3c(OCC(=O)N4CCCc5ccccc54)cccc3C2=O)c1 | inconclusive: 11.2 µM [inhibitor, partial curve] | 
4 | COc1ccc(CNC(=O)CCSCc2ccc(C)cc2)cc1 |  | inactive: -13.7%
5 | Cc1cccc(C(=O)NC(=S)Nc2ccccc2C(=O)O)c1 |  | inactive: -6.63%
6 | COc1ccc(NC(=O)c2cc(-c3ccccc3)nc3c2c(C)nn3-c2ccccc2)c(OC)c1 |  | inactive: -1.63%
7 | N#CC1=C(N)Oc2n[nH]c(-c3ccccc3)c2C1c1cccnc1 (stereo unspecified) | inconclusive: 20 µM [inhibitor, partial curve] | 
8 | Cc1c(Cl)cccc1NC(=O)N1CCN(Cc2cc(=O)n3nc(-c4ccccc4F)sc3n2)CC1 | inconclusive: 1.58 µM [inhibitor, single point] | 
9 | Cc1nn(C)c2c1c(-c1ccccc1)cc(=O)n2Cc1ccccc1F | inconclusive: 39.8 µM [inhibitor, single point] | 
10 | Cc1nc2sc(-c3ccccc3)cc2c(=O)n1N | inconclusive: 0.562 µM [inhibitor, full curve, poor fit] | 
11 | COc1ccc(/C=C/C(O)=C2/C(=O)N(C)C3(C)CC2c2ccccc2O3)cc1 (stereo unspecified) | inconclusive: 17.8 µM [inhibitor, partial curve, poor fit] | 
12 | CC(=O)c1cc(C#N)c(SCC(=O)Nc2nccs2)nc1C | active: 7.08 µM | 
13 | Clc1cccc(-c2cc3nc4c(c(NCc5ccco5)n3n2)CCCC4)c1 | inconclusive: 8.91 µM [inhibitor, full curve] | 
14 | CCOc1ccc(-c2cc3nc(C4CCN(C(=O)OC(C)(C)C)CC4)c(C(=O)Nc4ccc(C(=O)OC)cc4)cn3n2)cc1 | inconclusive: 1.78 µM [inhibitor, full curve] | 
15 | Cc1ccc(CCNC(=O)NCc2noc3ccc(C)cc23)cc1 |  | inactive: -4.16%
16 | CC1CCc2sc(C(=O)N/N=C/c3ccc(O)cc3)cc2C1 (stereo unspecified) | inconclusive: 1.41 µM [inhibitor, full curve, poor fit] | 
17 | Cc1ccc(C)n1C(CC(=O)O)c1ccc(C#N)cc1 (stereo unspecified) | inconclusive: 31.6 µM [inhibitor, partial curve] | 
18 | Cc1cc(C)cc(N2C(=O)CS(=O)(=O)C23C(=O)N(Cc2ccc(F)cc2)c2ccc(C)cc23)c1 (stereo unspecified) |  | inactive: -0.37%
19 | Cc1cc(F)ccc1NC(=O)C1CCCN(c2nnc(-n3c(C)ccc3C)s2)C1 (stereo unspecified) | inconclusive: 28.2 µM [inhibitor, single point] | 
20 | COc1cc(OC)c(OC)cc1CN1CCN(Cc2ccc(SC)cc2)CC1 |  | inactive: -4.02%
21 | O=C(O)c1cccc2cccnc12 |  | inactive: -0.557%
22 | O=C(COc1ccc(Br)cc1)N1CCc2ccccc2C1 | inconclusive: 22.4 µM [inhibitor, single point] | 
23 | Cc1oc2c(c1C(=O)c1ccc(Cl)cc1)C(=O)C(=O)c1ccccc1-2 | active: 2.24 µM | 

Row | Structure (SMILES) | Potency | activity, negative = inhibition
24 | COc1ccc(Nc2nc(-c3cc4cccc(OC)c4oc3=O)cs2)cc1 | inconclusive: 3.55 µM [inhibitor, full curve] | 
25 | O=[N+]([O-])c1ccc(O)c2cccnc12 | inconclusive: 39.8 µM [inhibitor, single point] | 
26 | S=C(NCc1ccccc1)NNc1ccccc1 | inconclusive: 8.91 µM [inhibitor, partial curve] | 
27 | Cc1ccc(/C=c2\sc3nc(-c4ccco4)nn3c2=O)o1 | active: 17.8 µM | 
28 | CN1C(=O)c2ccc(NC(=O)c3ccc(N4CCCCC4)c([N+](=O)[O-])c3)cc2C1=O | inconclusive: 1.78 µM [inhibitor, full curve] | 
29 | CSC(=Nc1ccccc1)C(C#N)c1nc2ccccc2[nH]1 (stereo unspecified) |  | inactive: 0.0922%
30 | O=C(C(Sc1ccccc1)c1ccccc1)N1CCN(c2ccccc2)CC1 (stereo unspecified) | inconclusive: 31.6 µM [inhibitor, single point] | 
31 | OCCOCCn1c(-c2ccccc2)nc(=S)c2c1CCCC2 |  | inactive: -6.55%
32 | O=C(COC(=O)c1ccc(Cl)s1)c1cc2ccccc2o1 | inconclusive: 17.8 µM [inhibitor, partial curve] | 
33 | COc1cc(NCCC(=O)c2cccs2)c(OC)cc1Cl | inconclusive: 25.1 µM [inhibitor, single point] | 
34 | O=C(CC1Nc2ccccc2NC1=O)Nc1ccccc1 (stereo unspecified) | inconclusive: 22.4 µM [inhibitor, partial curve] | 
35 | Cc1[nH]n(C)c(=O)c1N=Nc1ccc(S(C)(=O)=O)cc1 | inconclusive: 28.2 µM [inhibitor, partial curve] | 
36 | OCc1ccnc2c(O)cccc12 | inconclusive: 10 µM [inhibitor, partial curve] | 
37 | Cn1c(=O)[nH]c2sc3c(c2c1=O)CC(C)(C)OC3 |  | inactive: -2.45%
38 | COc1ccc(OCC(=O)Nc2cccc(-c3nc4ccccc4[nH]3)c2)cc1 | inconclusive: 39.8 µM [activator, single point] | 
39 | CSc1ccc(CCNC(=O)C(C)n2nc(C)c3c(C)n(-c4ccccc4)nc3c2=O)cc1 (stereo unspecified) | inconclusive: 39.8 µM [activator, single point] | 
40 | CCCc1ccc(Oc2c(-c3ccc(O)c(C)c3O)n[nH]c2C)cc1 | active: 28.2 µM | 
41 | O=S(=O)(Nc1ccc(-c2cn3c(n2)SCC3)cc1)c1cccs1 | inconclusive: 15.8 µM [inhibitor, partial curve] | 
42 | Cn1c2ccccc2c(=O)c2c(O)cccc21 | inconclusive: 11.2 µM [inhibitor, partial curve] | 
43 | COc1ccc2[nH]cc(/C=C(/C#N)S(=O)(=O)c3ccccc3)c2c1 | inconclusive: 39.8 µM [inhibitor, partial curve] | 
44 | CC(=O)OCC1OC(C#Cc2ccc(C(C)(C)C)cc2)C=CC1OC(C)=O (stereo unspecified) | inconclusive: 3.55 µM [inhibitor, single point] | 
45 | O=c1[nH]n2cc(-n3cc([N+](=O)[O-])cn3)cnc2c1Br | inconclusive: 11.2 µM [inhibitor, partial curve] | 
46 | CCN1CCCc2cc(CN(CCN3CCOCC3)C(=S)Nc3cccc(OC)c3)ccc21 |  | inactive: -16.1%
